Hit rate of the full screen: of about 420,000 compounds, about 50,000 (12%) were called active. The shares of active, inactive and inconclusive entries below differ from those in the screen. Calls follow the shape of the dose curve; as a rule, active = well fitted inhibition curve with a large enough effect; inconclusive = small, poorly fitted or top-dose-only effect; inactive = flat fitted curve, though single readings scatter. No potency is given beside an inconclusive call; the fits are too rough.
Test: qHTS for Inhibitors of human tyrosyl-DNA phosphodiesterase 1 (TDP1): qHTS in cells in presence of CPT; also: nearly all actives have a fitted effect of over 55% in size
Conditions: chicken DT40 Tdp1-/-;hTDP1 cells + 20 nM CPT, ATP luminescence, 48 h; series mostly up to 46.2 µM
How it was run: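 Chicken DT40 Tdp1-/- cells complemented with human TDP1, 400 cells/well, exposed to compounds plus 20 nM camptothecin for at least 48 h at 37 C; viability read as ATP content by CellTiter-Glo luminescence.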
Potency is read from the fitted curve at half-maximal effect; tags tell the direction and shape of the fitted curve.

Question: With `CCOC(=O)C1=C(N)Oc2cc(O)ccc2C1c1cccc(Cl)c1` (centres undefined) as the compound, how does the Potency read?
Answer: The Potency was inconclusive [inhibitor, single point].

Question: For `CCOc1ccc(NC(=S)Nc2ccc3nsnc3c2)cc1`, which Potency is on record?
Answer: Its Potency is active: 5.8 µM.

Question: Which Potency does the source give for `Cc1ccc(N(Cc2cccs2)C(=O)Nc2cccc(Cl)c2)cc1` here?
Answer: Its Potency is inconclusive [inhibitor, single point].

Question: With `CCCCCCCCCCCCCCCC(=O)OC/C=C(C)/C=C/C=C(C)/C=C/C1=C(C)CCCC1(C)C` as the compound, how does the Potency read?
Answer: The Potency was inconclusive [inhibitor, single point].

Question: For `Cc1ccc(Cn2c(=O)n(CC3CCC(C(=O)N4CCC(C)CC4)CC3)c(=O)c3sccc32)cc1` (centres undefined), which Potency is on record?
Answer: The Potency was inconclusive [inhibitor, single point].

Question: With `Cc1ccc(CNC(=O)c2c(O)nc3ccccn3c2=O)cc1` as the compound, how does the Potency read?
Answer: Its Potency is inconclusive [inhibitor, single point].

Question: Which Potency does the source give for `CCN(CC)S(=O)(=O)c1cccc(NC(=O)C(=O)c2c(-c3ccccc3)cc3ccccn23)c1` here?
Answer: Its Potency is inconclusive [inhibitor, single point].

Question: Which Potency does the source give for `CC(C)(OC1OC(CO)C(O)C(O)C1O)[C@H]1Oc2ccc3ccc(=O)oc3c2[C@H]1O` (some centres undefined) here?
Answer: The Potency was “inactive”.

Question: With `Cc1ccc(S(=O)(=O)Oc2cccc(/C=N/n3cnnc3)c2)cc1` as the compound, how does the Potency read?
Answer: Its Potency is active: 8.2 µM.

Question: For `CCOC(=O)c1c(C)n(C)c2ccc(OC)c([N+](=O)[O-])c12`, which Potency is on record?
Answer: The Potency was “inactive”.

Question: With `O=C1CSc2ccc(S(=O)(=O)NCc3ccccc3Cl)cc2N1` as the compound, how does the Potency read?
Answer: Its Potency is “inactive”.

Question: With `CCOC(=O)C(NC(=O)NCc1ccccc1)(OCC)C(F)(F)F` (centres undefined) as the compound, how does the Potency read?
Answer: Its Potency is inconclusive [inhibitor, single point].

Question: For `COc1cccc(CNC(=O)c2sc3nc4n(c(=O)c3c2C)CCC4)c1`, which Potency is on record?
Answer: The Potency was inconclusive [inhibitor, single point].

Question: With `CCN1C(=NCCc2ccc([N+](=O)[O-])cc2)N[C@@H](c2ccccc2)[C@H](C(=O)OC)[C@H]1C` as the compound, how does the Potency read?
Answer: Its Potency is inconclusive [inhibitor, single point].

Question: For `CC1(C)CC2CC(C)(CN2C(=S)Nc2ccccc2F)C1` (centres undefined), which Potency is on record?
Answer: The Potency was active: 20.6 µM.

Question: For `C[C@@H]1CN([C@H](C)CO)C(=O)CCCn2cc(nn2)CO[C@H]1CN(C)S(=O)(=O)c1cccc(F)c1`, which Potency is on record?
Answer: The Potency was “inactive”.

Question: For `CCCC1c2ccsc2CCN1C(=S)NC` (centres undefined), which Potency is on record?
Answer: Its Potency is inconclusive [inhibitor, single point].

Question: Which Potency does the source give for `COC(=O)c1ccc(-c2ccc(OC)c([C@H]3[C@H]4C=CC[C@@H](C)[C@@H]4C(=O)N3Cc3ccccc3)c2)cc1` here?
Answer: The Potency was active: 5.8 µM.

Question: For `COc1cccc(/C=C(/C#N)c2nc3ccccc3[nH]2)c1OC(C)C(=O)O` (centres undefined), which Potency is on record?
Answer: The Potency was “inactive”.

Question: Which Potency does the source give for `O=C(CSc1nnc(COc2ccc3c(c2)CCCC3)o1)Nc1ccc(F)cc1` here?
Answer: The Potency was “inactive”.

Question: Which Potency does the source give for `CCCCCNC(=O)C(c1cccc2ccccc12)n1c(=O)c(-c2ccccc2)nc2ccccc21` (centres undefined) here?
Answer: Its Potency is active: 13 µM.

Question: With `CCOC(=O)c1ccccc1NC(=O)c1cc2c(s1)-c1c(C)cccc1OC2` as the compound, how does the Potency read?
Answer: Its Potency is “inactive”.

Question: Which Potency does the source give for `CC(C)(C)NC(=O)C(C1CC1)n1c(=O)c(-c2ccco2)nc2ccccc21` (centres undefined) here?
Answer: Its Potency is inconclusive [inhibitor, single point].

Question: Which Potency does the source give for `COc1ccccc1NC(=O)c1cc(S(=O)(=O)NCc2ccccc2)ccc1F` here?
Answer: Its Potency is inconclusive [inhibitor, single point].

Question: For `COc1ccccc1NC(=O)c1ccc(S(=O)(=O)NCc2ccco2)cc1`, which Potency is on record?
Answer: The Potency was inconclusive [inhibitor, single point].

Question: For `CC(=O)Nc1ccc(SCCC2CCCCN2C)cc1` (centres undefined), which Potency is on record?
Answer: Its Potency is “inactive”.

Question: Which Potency does the source give for `CCOc1ccccc1NC(=O)Cn1cnc2c1c(=O)n(C)c(=O)n2C` here?
Answer: The Potency was inconclusive [inhibitor, single point].

Question: For `COc1ccc(S(=O)(=O)Nc2cc3c4c(c2)CC(=O)N4CCC3)cc1C`, which Potency is on record?
Answer: The Potency was inconclusive [inhibitor, partial curve].

Question: Which Potency does the source give for `COc1cc(CCC(=O)Nc2c(C(=O)N3CCN(c4ccccc4)CC3)oc3ccccc23)on1` here?
Answer: The Potency was inconclusive [inhibitor, single point].

Question: Which Potency does the source give for `CC(OC(=O)c1cc(O)c2ccccc2c1O)C(=O)Nc1ccc(C(N)=O)cc1` (centres undefined) here?
Answer: Its Potency is inconclusive [inhibitor, partial curve, poor fit].

Question: Which Potency does the source give for `Cc1cc(NC(=O)CN2CCN(C/C=C/c3ccccc3)CC2)c([N+](=O)[O-])cc1C` here?
Answer: Its Potency is inconclusive [inhibitor, partial curve].

Question: Which Potency does the source give for `OCCN1CCN(C(=S)Nc2ccccc2)CC1` here?
Answer: The Potency was “inactive”.

Question: For `CCOc1ccc2c(c1)-c1c(ssc1=S)C(C)(C)N2C`, which Potency is on record?
Answer: Its Potency is inconclusive [inhibitor, single point].

Question: With `O=C(N/N=C/c1cccs1)c1cc(-c2ccncc2)nc2ccccc12` as the compound, how does the Potency read?
Answer: The Potency was active: 0.58 µM.

Question: With `COc1ccccc1CCC(=O)OCC(=O)Nc1cc(C)nn1-c1ccccc1` as the compound, how does the Potency read?
Answer: Its Potency is “inactive”.

Question: Which Potency does the source give for `CCOC(=O)c1c(-c2ccc(C)o2)csc1NC(=S)NC(=O)c1cccs1` here?
Answer: Its Potency is inconclusive [inhibitor, single point].

Question: With `COC(=O)[C@]12CCCCC=C1N(Cc1cccc3ccccc13)C(=O)[C@H](CC(=O)NCc1cccc3ccccc13)C2` as the compound, how does the Potency read?
Answer: Its Potency is inconclusive [inhibitor, single point].

Question: With `CCCC[C@@H]1CNC(=O)C(=O)N1CCc1cccc(F)c1` as the compound, how does the Potency read?
Answer: The Potency was inconclusive [inhibitor, single point].

Question: With `COC(=O)c1[nH]c2ccc(C)cc2c1NC(=O)CN1CCN(c2ccccc2)CC1` as the compound, how does the Potency read?
Answer: Its Potency is active: 16.4 µM.

Question: Which Potency does the source give for `CC1(C(=O)NS(=O)(=O)C2CC2)CCN(C(=O)c2ccc(F)c(Cl)c2)C1` (centres undefined) here?
Answer: Its Potency is “inactive”.

Question: For `CN1C(=O)CSc2ccc(NC(=O)NCc3ccc(F)cc3)cc21`, which Potency is on record?
Answer: Its Potency is inconclusive [inhibitor, single point].

Question: Which Potency does the source give for `CC(C)OCCCNc1sc(S(=O)(=O)c2ccccc2)nc1S(=O)(=O)c1ccc(Cl)cc1` here?
Answer: The Potency was inconclusive [inhibitor, single point].

Question: Which Potency does the source give for `COc1ccc2[nH]c(=O)c(CN(CC3CCCO3)C(=S)Nc3cccc(C)c3)cc2c1` (centres undefined) here?
Answer: The Potency was inconclusive [inhibitor, single point].

Question: With `O=C1CSC(c2c(F)cccc2Cl)N1c1cccc(F)c1` (centres undefined) as the compound, how does the Potency read?
Answer: The Potency was inconclusive [inhibitor, single point].

Question: With `CCOC(=O)[C@H]1[C@H]2COc3ccc(OC)cc3[C@@H]2N2C(=O)c3ccc(Cl)cc3NC(=O)[C@@]12C` as the compound, how does the Potency read?
Answer: The Potency was inconclusive [inhibitor, single point].

Question: With `COc1ccc(NC(=O)CSc2nccn2-c2ccccc2)cc1` as the compound, how does the Potency read?
Answer: The Potency was inconclusive [inhibitor, single point].

Question: With `O=C(CSc1cccc[n+]1[O-])NC(=O)c1ccc(OC(F)F)cc1` as the compound, how does the Potency read?
Answer: The Potency was “inactive”.

Question: With `N#C/C(C(=O)N1CCCCC1)=C1/N=C(N)c2ccccc21` as the compound, how does the Potency read?
Answer: Its Potency is “inactive”.

Question: Which Potency does the source give for `CCCNC(=O)Cn1c(=O)/c(=C\c2ccc(-c3cccc([N+](=O)[O-])c3)o2)s/c1=C\C(=O)C(C)(C)C` here?
Answer: The Potency was active: 23.1 µM.

Question: With `N#CC1=C(N)Oc2cc(N)ccc2C1c1ccc(F)cc1F` (centres undefined) as the compound, how does the Potency read?
Answer: Its Potency is inconclusive [inhibitor, single point].

Question: With `O=c1c2ccccc2nnn1COc1ccc(Cl)cc1Br` as the compound, how does the Potency read?
Answer: The Potency was “inactive”.

Question: For `CS(=O)(=O)c1nc(-c2ccc(F)cc2)cc(C(F)(F)F)n1`, which Potency is on record?
Answer: Its Potency is active: 1.3 µM.

Question: For `COc1ccc(-c2cc(C(=O)NNC3=NCCC3)c3c(C)nn(-c4ccccc4)c3n2)cc1`, which Potency is on record?
Answer: The Potency was inconclusive [inhibitor, single point].

Question: Which Potency does the source give for `CCCOc1ccc(N2C(=O)CC(SC(=NCC)Nc3cccc(F)c3)C2=O)cc1` (centres undefined) here?
Answer: The Potency was inconclusive [inhibitor, single point].

Question: Which Potency does the source give for `CNC(=O)Nc1cc(C)nn1C` here?
Answer: The Potency was inconclusive [inhibitor, single point].

Question: For `CC(C)Cn1c(N)c(C(=O)COC(=O)/C=C/c2cccs2)c(=O)n(C)c1=O`, which Potency is on record?
Answer: Its Potency is inconclusive [inhibitor, single point].

Question: With `CN1CCN(c2ncnc3c2ncn3[C@H]2CN(Cc3ccc(F)cc3)C[C@@H](CO)O2)CC1` as the compound, how does the Potency read?
Answer: The Potency was inconclusive [inhibitor, partial curve].

Question: Which Potency does the source give for `FC(F)(F)c1cccc(CON=C2CCN(c3ncc(C(F)(F)F)cc3Cl)CC2)c1` here?
Answer: The Potency was inconclusive [inhibitor, single point].

Question: With `COc1cc(S(=O)(=O)Nc2ccc(C)cc2)ccc1N=Cc1c(C)c(C#N)c(=O)n(C)c1O` as the compound, how does the Potency read?
Answer: The Potency was inconclusive [inhibitor, partial curve].

Question: For `Cc1cc(C)c2[nH]c(=O)c(CN(Cc3ccco3)C(=O)C3CCCO3)cc2c1` (centres undefined), which Potency is on record?
Answer: The Potency was inconclusive [inhibitor, partial curve].

Question: With `COc1ccc(CCNC(=O)c2cnc3ccc(C)cn3c2=O)cc1OC` as the compound, how does the Potency read?
Answer: Its Potency is active: 20.6 µM.

Question: Which Potency does the source give for `CCc1cc(C(=O)NNC(=O)CCl)sc1C` here?
Answer: Its Potency is active: 14.6 µM.

Question: For `COc1ccc(Nc2ncnc3scc(-c4ccc(OC)cc4)c23)cc1`, which Potency is on record?
Answer: The Potency was active: 2.91 µM.

Question: Which Potency does the source give for `O=C(Nc1nnc(-c2ccc(Cl)cc2)o1)Nc1ccccc1Cl` here?
Answer: Its Potency is inconclusive [inhibitor, partial curve].

Question: For `CCOC(=O)N1CCN(C2=C(NS(=O)(=O)c3ccc(Br)cc3)C(=O)c3ccccc3C2=O)CC1`, which Potency is on record?
Answer: The Potency was active: 11.6 µM.

Question: For `CN(c1ccc(Cl)cc1)c1cc2c(c3c1ccn3C)C1CCC2O1` (centres undefined), which Potency is on record?
Answer: Its Potency is inconclusive [inhibitor, single point].

Question: For `CCOCCc1nn2c(=O)cc(CSCC(=O)Nc3cc(C)cc(C)c3)nc2s1`, which Potency is on record?
Answer: Its Potency is “inactive”.

Question: For `CCOC(=O)c1cc(-c2ccc(OC)cc2)n(CCC(=O)NCc2ccccc2OC)c1C`, which Potency is on record?
Answer: Its Potency is active: 25.9 µM.

Question: For `CCCc1ccc(C2=Nn3c(nnc3C(C)C)SC2)cc1`, which Potency is on record?
Answer: Its Potency is inconclusive [inhibitor, single point].
